This note sets out measurements from the BET-seq Pho4 binding data (Le et al. 2018).

This is one part of the list. These are noisy estimates, calculated here from bound and input reads.

This experiment addresses T1, Pho4 (S. cerevisiae) (UniProt P07270).
T1 sequence: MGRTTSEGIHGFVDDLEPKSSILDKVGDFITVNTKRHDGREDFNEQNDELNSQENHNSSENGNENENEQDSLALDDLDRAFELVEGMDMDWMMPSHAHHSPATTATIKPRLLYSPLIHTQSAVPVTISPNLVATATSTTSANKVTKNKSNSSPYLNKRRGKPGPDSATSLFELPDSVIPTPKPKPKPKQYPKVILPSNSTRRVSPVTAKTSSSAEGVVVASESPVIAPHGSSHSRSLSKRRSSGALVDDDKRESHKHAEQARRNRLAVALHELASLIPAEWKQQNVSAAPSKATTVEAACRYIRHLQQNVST
Briefly: relative binding free energy (BET-seq); higher = weaker binding. The settings on record: reference: library average.
In the case of TTATGCACGTGGGTAA, the “relative binding free energy” value was -0.04 kcal/mol.
The value for TATGTCACGTGTGGTA was 0.15 kcal/mol; that for GGAGCCACGTGGTGCG was -0.06 kcal/mol.
The value for GCGAGCACGTGAGGTG was 0.08 kcal/mol.
The value for CGATTCACGTGGGGGG was 0.09 kcal/mol; that for TATGGCACGTGTTACT was -0.09 kcal/mol; that for CGGCACACGTGGTGGT was -0.11 kcal/mol.
Regarding TGCGTCACGTGTTGCA, the “relative binding free energy” value was 0.14 kcal/mol.
For GGCGTCACGTGCGGGT the value was 0 kcal/mol.
On to AGTAACACGTGGAAGT, for which the “relative binding free energy” value is 0.11 kcal/mol.
For AGGTTCACGTGTAGAA the value was 0.29 kcal/mol.
The value for AGGCTCACGTGTAGTA was 0.2 kcal/mol.
On to TGTTTCACGTGTAAAT, for which the “relative binding free energy” value was 0.35 kcal/mol.
The value for CAAGTCACGTGGTATG was 0.12 kcal/mol.
For CGAGTCACGTGTGGAA the value was 0.29 kcal/mol; for AGGGACACGTGGATTA, 0.08 kcal/mol; for AGTTACACGTGTTTCT, 0.17 kcal/mol.
For TTGGTCACGTGAGTGA the value was 0.23 kcal/mol; for CAGAGCACGTGTGGGA, -0.08 kcal/mol.
For the sequence GGACACACGTGCGTGT, the “relative binding free energy” value turned out to be 0.08 kcal/mol.
For ATAGACACGTGTTTAG the value was -0.05 kcal/mol; for TGTTGCACGTGATGTG, 0.09 kcal/mol.
Regarding GGCATCACGTGGTCTT, the “relative binding free energy” value worked out at 0.15 kcal/mol.
For TTGTTCACGTGTTCCA the value was 0.24 kcal/mol; for TCGTCCACGTGTAGGG, 0.11 kcal/mol.
The value for GCAGGCACGTGCGTGT was -0.18 kcal/mol; that for GTGTGCACGTGTAAAT was 0.09 kcal/mol.
The value for TTCGACACGTGTTGGT was 0.04 kcal/mol.
With AAGTTCACGTGGCGGG, the “relative binding free energy” value turned out to be 0.2 kcal/mol.
In the case of TTTGCCACGTGTAGGT, the “relative binding free energy” value is -0.05 kcal/mol.
ATTTACACGTGTATTA: the “relative binding free energy” value is -0.08 kcal/mol.
On to TTTACCACGTGTAGTT, for which the “relative binding free energy” value was 0.19 kcal/mol.
Regarding CGTGGCACGTGATGCT, the “relative binding free energy” value was -0.04 kcal/mol.
The value for TTATGCACGTGGCAAT was -0.17 kcal/mol.
The value for GTTTTCACGTGTCTAA was 0.29 kcal/mol; that for GGGTGCACGTGGGAAT was -0.07 kcal/mol.
For TATTTCACGTGTGATA the value was 0.39 kcal/mol; for TTGTGCACGTGCTAGT, -0.09 kcal/mol.
As to TTGCTCACGTGCGTGT, the “relative binding free energy” value stood at 0.11 kcal/mol.
Consider TGTGTCACGTGAATGG, for which the “relative binding free energy” value stood at 0.27 kcal/mol.
With CTTGGCACGTGGCTTT, the “relative binding free energy” value is -0.25 kcal/mol.
The value for TTTTACACGTGGTTAC was 0.06 kcal/mol; that for CGGGTCACGTGTTGCA was 0.09 kcal/mol.
For the sequence GTTTGCACGTGAAAAT, the “relative binding free energy” value was 0.32 kcal/mol.
With GTTCGCACGTGAAGTA, the “relative binding free energy” value stood at 0.34 kcal/mol.
Regarding ATAGTCACGTGTATTA, the “relative binding free energy” value came to 0.08 kcal/mol.
For CTATTCACGTGTGGGT the value was 0.3 kcal/mol.
For GTAAGCACGTGGTCGT the value was -0.15 kcal/mol.
As to GCCTTCACGTGTTTGG, the “relative binding free energy” value came to 0.38 kcal/mol.
The value for TGTCACACGTGACGGG was 0.16 kcal/mol; that for TGGATCACGTGTGCAG was -0.01 kcal/mol; that for AGGGTCACGTGGACTT was 0.14 kcal/mol.
The value for AGGTCCACGTGCATGT was 0.1 kcal/mol; that for GTGTTCACGTGTGTGT was 0.26 kcal/mol; that for ATATTCACGTGTCTTT was 0.12 kcal/mol.
The value for GGTGTCACGTGGAATG was 0.22 kcal/mol.
Take TTTGACACGTGTCGTT: the “relative binding free energy” value stood at 0.09 kcal/mol.
The value for TTTTGCACGTGTGGTC was 0.17 kcal/mol.
The value for ATGGCCACGTGACGTT was 0.14 kcal/mol; that for AGCTGCACGTGTTGGT was 0 kcal/mol.
The value for CGTGCCACGTGGAAGG was -0.06 kcal/mol; that for GAGGTCACGTGGCGTG was 0 kcal/mol.
Take TATTCCACGTGTTTGG: the “relative binding free energy” value is -0.04 kcal/mol.
Regarding AGATGCACGTGTCGTT, the “relative binding free energy” value is -0.04 kcal/mol.
For TGGGTCACGTGGGTGT the value was 0.05 kcal/mol.
The value for TGTGGCACGTGAAAGC was 0.13 kcal/mol.
The value for ATTTTCACGTGAAAGT was 0.4 kcal/mol; that for TGAAGCACGTGAGCTG was 0.18 kcal/mol.
With GTTCGCACGTGGTGGC, the “relative binding free energy” value was -0.1 kcal/mol.
For ATTAGCACGTGTGCGT the value was -0.06 kcal/mol; for AGTGACACGTGGATTA, -0.09 kcal/mol; for GGGTACACGTGGTACG, -0.04 kcal/mol.
With TGTACCACGTGTGTTA, the “relative binding free energy” value was -0.18 kcal/mol.
The value for GTTTACACGTGAAGTA was 0.17 kcal/mol; that for TTCATCACGTGTTGGT was 0.1 kcal/mol; that for TTTGTCACGTGTGGGT was 0.21 kcal/mol.
Regarding CGGGGCACGTGATAGT, the “relative binding free energy” value was determined as 0.08 kcal/mol.
For TTTTGCACGTGTCTTG the value was 0 kcal/mol.
The value for TCGTGCACGTGGCATG was -0.08 kcal/mol; that for CGGTACACGTGGTGTG was 0 kcal/mol; that for TGCAGCACGTGGTGAT was -0.1 kcal/mol.
The value for AGAGGCACGTGCAAGT was -0.13 kcal/mol; that for CATGACACGTGAGTTG was 0.31 kcal/mol.
For ATTTGCACGTGTGAAA, the “relative binding free energy” value was determined as 0.11 kcal/mol.
With ATAGGCACGTGATTGC, the “relative binding free energy” value was -0.11 kcal/mol.
For AGGGCCACGTGTGAAG the value was 0.1 kcal/mol; for ATACTCACGTGGGGGG, -0.04 kcal/mol.
For GGACGCACGTGTGTGG the value was 0.03 kcal/mol; for CGGTACACGTGTGTGC, 0.04 kcal/mol; for GGTAACACGTGGTTGA, 0.1 kcal/mol.
For ACTTTCACGTGAGGTC the value was 0.42 kcal/mol.
Turning to TGAGTCACGTGAAGAG, the “relative binding free energy” value is 0.3 kcal/mol.
Regarding TTTAACACGTGACAGG, the “relative binding free energy” value stood at 0.13 kcal/mol.
For TGTAACACGTGGGACT, the “relative binding free energy” value was -0.11 kcal/mol.
On to GCTGACACGTGGGGTG, for which the “relative binding free energy” value was -0.12 kcal/mol.
AGCATCACGTGTTGGT: the “relative binding free energy” value amounted to 0.25 kcal/mol.
For TTTCTCACGTGTGTGG the value was 0.34 kcal/mol; for GGGCTCACGTGGGGCA, 0.08 kcal/mol; for ACTGTCACGTGTATGG, 0.09 kcal/mol.
For TAGGTCACGTGTGCAA the value was 0.17 kcal/mol.
The value for AGTCACACGTGTGTAG was 0.05 kcal/mol.
As to CGGGACACGTGACGGG, the “relative binding free energy” value was 0.08 kcal/mol.
Take TACGTCACGTGTGGGT: the “relative binding free energy” value turned out to be 0.2 kcal/mol.
For AAGGCCACGTGGGATG, the “relative binding free energy” value was -0.15 kcal/mol.
With GTTAGCACGTGGCTGC, the “relative binding free energy” value was 0.01 kcal/mol.
Take TAATCCACGTGGTGTT: the “relative binding free energy” value is -0.01 kcal/mol.
The value for GGTGGCACGTGTTCTG was 0.01 kcal/mol; that for TTCATCACGTGTAAGG was 0.16 kcal/mol.
Regarding TTTGACACGTGAAAGA, the “relative binding free energy” value stood at 0.23 kcal/mol.
The value for GGCGTCACGTGAGATT was 0.51 kcal/mol; that for TATAGCACGTGGTGCA was -0.19 kcal/mol.
For ATGGACACGTGGTACG the value was -0.07 kcal/mol; for TATCTCACGTGTTTTT, 0.17 kcal/mol.
The value for AGTATCACGTGTGCTG was 0.15 kcal/mol.
Regarding GGGTACACGTGATCGG, the “relative binding free energy” value was found to be 0.31 kcal/mol.
